Experimental data from PubChem BioAssay AID624296 (National Center for Advancing Translational Sciences (NCATS), 2012).
In all, about 350,000 compounds went through this assay and about 9,900 (2.8%) were called active. Inconclusive results, whose numbers are uncertain, are shown with a selection of clear calls. The call rests on the fitted dose curve; in most records, active means well fitted activation curve with a large enough effect; inconclusive means small, poorly fitted or top-dose-only effect; inactive means no such curve, though single readings can be large or run the other way. No potency is given beside an inconclusive call; the fits are too rough.

Test: A quantitative high throughput screen for small molecules that induce DNA re-replication in MCF 10a normal breast cells. Further: nearly all actives have a fitted effect of over 50% in size. On activity, positive = re-replication: % of control where 0% means no effect.
Conditions: MCF 10A DNA re-replication, Hoechst nuclear intensity, 48 h; activity, positive = re-replication: at 46.1 µM (top of the series)
Potency means the concentration at half of the fitted maximal effect; tags describe the fitted curve by direction and shape.

Compound | activity, positive = re-replication | Potency
O=C(NCc1ccccc1)c1cccc(COc2cc(Cl)ccc2Cl)c1 | inactive: 27.4% | 
C=CCC[C@H](Cc1ccc(F)cc1)C(=O)O[C@H](CNC(=O)[C@@H](CC=C)CC(=O)N(CCO)Cc1ccccc1)c1ccccc1 |  | active: 20.6 µM
CC(C)c1nc(N2CCOCC2)c(C#N)c2c1CCCC2 |  | inconclusive [activator, single point]
O=S(c1ccccc1O)S(=O)c1ccccc1O (stereo not given) |  | inconclusive [activator, single point]
COc1cc(CCC(N)c2cccc(O)c2)cc(OC)c1OC (stereo not given) | inactive: 0.208% | 
Nc1c(-c2ccc(Cl)cc2)cnn1-c1cccc(C(F)(F)F)c1 | inactive: 9.54% | 
Cc1ccc(S(=O)(=O)c2c(N)n(/N=C/c3ccco3)c3nc4ccccc4nc23)cc1C |  | inconclusive [activator, full curve, poor fit]
Cc1cc(C(=O)COC(=O)COc2ccc(C#N)cc2)c(C)n1C1CC1 |  | inconclusive [activator, single point]
Cc1ccc2[nH]c(C(=O)N/N=C/c3ccc([N+](=O)[O-])cc3)c(C)c2c1 |  | inconclusive [activator, partial curve, poor fit]
O=C(COc1ccc(C(=S)N2CCCC2)cc1)Nc1ccc(F)cc1 |  | inconclusive [activator, single point]
CCOC(=O)c1ccccc1NC(=O)c1cc2sccc2n1C |  | inconclusive [activator, full curve, poor fit]
Cc1nc(Nc2ccccc2)sc1C(=O)Nc1ccccc1 | inactive: -1.83% | 
CCC(=O)c1ccc(OCC(=O)OCC(=O)NCCCc2ccccc2)cc1 | inactive: -3.3% | 
Cc1cccc(NC(=S)NC(=O)/C=C/c2ccco2)c1 |  | inconclusive [activator, full curve, poor fit]
CC(C)(C)c1ccc(OCC(=O)Nc2ccncc2)c(Br)c1 |  | active: 14.6 µM
COc1cc(C2C(C(=O)N3CCOCC3)=C(C)NC3=C2C(=O)CCC3)ccc1OC(C)=O (stereo not given) |  | inconclusive [activator, partial curve, poor fit]
CC1CCN(Cc2cc(=O)oc3cc(O)c(Cl)cc23)CC1 |  | active: 14.6 µM
CCc1cccc2c(C(=O)CN3C(=O)NC4(CCCCCC4)C3=O)c[nH]c12 |  | inconclusive [activator, partial curve, poor fit]
CCN(/N=C/c1ccc(Cl)cc1)c1cc(=O)n(C)c(=O)[nH]1 |  | inconclusive [activator, partial curve, poor fit]
CCOC(=O)NC(=O)CSc1nc(-c2ccc(C)c(C)c2)cn1-c1ccccc1 |  | inconclusive [activator, single point]
CC1CCC(NC(=O)c2cc(C3CC3)nn2-c2ccccc2)CC1 (stereo not given) |  | inconclusive [activator, single point]
CCN1CCN(c2cc(C)c3cc(NC(=S)N4CC(C)CC(C)C4)ccc3n2)CC1 (stereo not given) |  | inconclusive [activator, single point]
COc1ccc(OC)c2c(C)cc(C)nc12 | inactive: -28.6% | 
O=C(Nc1nc2cc3c(cc2s1)OCCO3)c1cccc(N2C(=O)CCC2=O)c1 |  | inconclusive [activator, full curve, poor fit]

Compound | activity, positive = re-replication | Potency
O=C(Nc1ccc(N2CCOCC2)cc1)c1cc2c(s1)CCCC2 |  | inconclusive [activator, single point]
COc1cccc(NC(=O)CN(C)C(=O)CSC(=S)N2CCCC2)c1 | inactive: 1.18% | 
COc1ccc(C2=NN3C(C2)c2ccccc2OC32C(=O)N(C)c3ccccc32)cc1 (stereo not given) |  | inconclusive [activator, single point]
O=C(Oc1cc2oc(=O)c3c(c2cc1Cl)CCCC3)c1cccs1 |  | inconclusive [activator, partial curve, poor fit]
COc1cccc(Nc2nc3ccccc3nc2NS(=O)(=O)c2ccc(NC(C)=O)cc2)c1 |  | inconclusive [activator, single point]
Cc1cnc(C(=O)Nc2ccc(C)c(S(=O)(=O)N3CCCCCC3)c2)cn1 | inactive: -0.447% | 
O=C(CSc1ncnc2ccccc12)NCc1ccco1 | inactive: -4.72% | 
O=[N+]([O-])c1cc(Br)c(O)c(C=Nc2ccc(N3CCOCC3)cc2)c1 |  | inconclusive [activator, single point]
COc1cc2[nH]c(=O)n(CCCCCC(=O)N3CC=C(c4ccccc4)CC3)c(=O)c2cc1OC |  | inconclusive [activator, single point]
CCc1c(C(=O)N/N=C/c2cccs2)nnn1-c1nonc1N | inactive: -3.74% | 
C(=C\c1ccco1)/c1ccc2ccccc2n1 |  | active: 18.4 µM
COc1ccccc1Nc1nnc(SCC(=O)NC(=O)Nc2ccc3c(c2)OCCO3)s1 |  | active: 20.6 µM
O=S(=O)(c1cccc(C(F)(F)F)c1)N(CCCN1CCOCC1)Cc1cccs1 |  | inconclusive [activator, partial curve, poor fit]
C=C(C)C(O)Cc1c(OC)ccc(C(=O)/C=C/c2ccc(O)cc2)c1O (stereo not given) |  | inconclusive [activator, single point]
CCC(Oc1ccccc1)C(=O)N(CC)CC(=O)NCc1ccc(F)cc1 (stereo not given) |  | inconclusive [activator, single point]
COc1ccc(OC)c(/C=C/C(=O)Nc2ccc3c(c2)CCC3)c1 | inactive: 13.4% | 
Cc1cccc(NC(=O)CN2CCN(C(=O)c3cccc(-n4cnnn4)c3)CC2)c1C | inactive: 0.621% | 
O=[N+]([O-])c1cccc(-c2ccc(C(=S)N3CCN(c4ccccc4)CC3)o2)c1 |  | inconclusive [activator, single point]
CCN1C(=O)/C(=C\c2ccco2)C(C(=O)OC)=C1C | inactive: -185% [at 0.0737 µM] | 
CC1(c2nnc(-c3ccccc3)o2)CC(c2cccc(Cl)c2)=NO1 (stereo not given) |  | inconclusive [activator, single point]
CCOC(=O)Cc1csc(NS(=O)(=O)c2ccc(Cl)cc2)n1 | inactive: 4.62% | 
CC(C)Cn1c2c(c(O)c(C(=O)Nc3ccc(F)cc3)c1=O)CCCC2 |  | inconclusive [activator, partial curve, poor fit]
Cn1cnnc1Sc1cc(N2CCN(S(=O)(=O)c3ccccc3)CC2)ccc1[N+](=O)[O-] | inactive: 6.56% | 
O=C(c1ccc(-c2nc3ccccc3s2)o1)N1CCN(c2ccccc2O)CC1 |  | inconclusive [activator, single point]

Compound | activity, positive = re-replication | Potency
Cc1ccc(Oc2nc3ccccn3c(=O)c2/C=C(\C#N)C(=O)Nc2c(C)n(C)n(-c3ccccc3)c2=O)c(C)c1 |  | inconclusive [activator, partial curve]
COc1cc(/C=C2\C(=O)ON=C2c2ccccc2)cc(Cl)c1O |  | inconclusive [activator, single point]
COC(=O)c1ccc(NC(=O)C(=O)c2cn(CC(=O)N3CCOCC3)c3ccccc23)cc1 | inactive: -1.21% | 
CC1CC(C)CN(C(=O)COC(=O)c2ccc(S(=O)(=O)N(C)c3ccccc3)cc2)C1 (stereo not given) | inactive: 1.15% | 
Cc1ccc(S(=O)(=O)N2CC=C(c3c(C)n(C)c4ccccc34)CC2)cc1 |  | inconclusive [activator, single point]
CCOc1cc2[nH]c(=S)n(CCC(=O)N3CCc4ccccc4C3)c(=O)c2cc1OCC | inactive: 0.553% | 
CCc1ccccc1NC(=O)c1cnn(-c2ccccc2)c1C | inactive: 7.67% | 
C=CCn1c(SCc2c(C)noc2C)nc2sc3c(c2c1=O)CCCC3 |  | active: 9.2 µM
COc1ccc(NC(=O)Nc2ccc(OC)c(OC)c2)c([N+](=O)[O-])c1 |  | inconclusive [activator, partial curve, poor fit]
CCCc1ccc(C(=O)[C@@H]2[C@@H](C(C)=O)N3c4ccc(F)cc4C=C[C@@H]3[C@@]23C(=O)Nc2ccccc23)cc1 |  | inconclusive [activator, single point]
O=C1Nc2ccccc2SC(c2ccccc2)C1O (stereo not given) | inactive: 9.83% | 
CCn1c(C)nc2cc(S(=O)(=O)C(F)(F)F)ccc21 | inactive: -2.4% | 
Cc1cc(C)nc(Sc2nc(Nc3ccccc3)nc(Sc3nc(C)cc(C)n3)n2)n1 |  | inconclusive [activator, single point]
CCOc1cc(/C=N/NC(=O)C(=O)N/N=C/c2ccc(O)c(OCC)c2)ccc1O |  | inconclusive [activator, partial curve, poor fit]
COc1ccc2c(c1)c1ncn(CCN3CCNCC3)c(=O)c1n2C |  | inconclusive [activator, partial curve]
Cc1cccc(Nc2nnc(SCC(=O)NC(=O)Nc3ccc4c(c3)OCCO4)s2)c1 |  | active: 23.1 µM
COCc1ccccc1C1=CC(=O)C[C@H](c2ccc(OC)cc2)C1 |  | inconclusive [activator, full curve, poor fit]
CCCC(=O)N1N=C(c2ccccc2)CC1c1cn(C)c2ccccc12 (stereo not given) |  | active: 23.1 µM
O=C(Nc1ccc(Cl)cc1)Nc1ccccc1Sc1ncc([N+](=O)[O-])s1 |  | inconclusive [activator, single point]
COCCCn1c(-c2cccc(Cl)c2)nc2c1c(=O)[nH]c(=O)n2Cc1ccccc1 | inactive: 16% | 
Fc1ccc(NC(=S)Nc2cccnc2)c(Cl)c1 | inactive: -7.01% | 
Cc1ccc(NC(=O)CS(=O)CC(=O)NCCCc2ccccc2)cc1Cl (stereo not given) |  | inconclusive [activator, full curve, poor fit]
